Laboratory results reported in PubChem BioAssay AID488969 (Vanderbilt High Throughput Screening Facility, 2010).
Over roughly 110,000 compounds, “z-score” has its median near -0.1; the highest 2% begin near 2. The list shows a part of the results. The source made the active and inactive calls.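 The calls were made as follows: active = z-score in the third read window above 3 or below -3; inactive = the rest.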 Non-standard residues stand in square brackets, D forms with d. Residues, ends and D or L forms follow the SMILES beside them. ξ: configuration not given here. ξV = CC(C)C(N)C(=O)O

Biological target: Metabotropic glutamate receptor 8 (Rattus norvegicus) (UniProt P70579)
Assay: mGluR8 Gi/Go-coupled signaling modulation – cell-based, rat, thallium flux, HTS, primary screen (AID 488969)
Conditions: HEK293 rat mGluR8, GIRK (G protein-gated inwardly rectifying potassium channel) thallium flux, FluoZin2; at 10 µM; stronger effect = higher value; submaximal glutamate (EC20) added with thallium

UniProt P70579, sequence (P70579 whole entry, looked up): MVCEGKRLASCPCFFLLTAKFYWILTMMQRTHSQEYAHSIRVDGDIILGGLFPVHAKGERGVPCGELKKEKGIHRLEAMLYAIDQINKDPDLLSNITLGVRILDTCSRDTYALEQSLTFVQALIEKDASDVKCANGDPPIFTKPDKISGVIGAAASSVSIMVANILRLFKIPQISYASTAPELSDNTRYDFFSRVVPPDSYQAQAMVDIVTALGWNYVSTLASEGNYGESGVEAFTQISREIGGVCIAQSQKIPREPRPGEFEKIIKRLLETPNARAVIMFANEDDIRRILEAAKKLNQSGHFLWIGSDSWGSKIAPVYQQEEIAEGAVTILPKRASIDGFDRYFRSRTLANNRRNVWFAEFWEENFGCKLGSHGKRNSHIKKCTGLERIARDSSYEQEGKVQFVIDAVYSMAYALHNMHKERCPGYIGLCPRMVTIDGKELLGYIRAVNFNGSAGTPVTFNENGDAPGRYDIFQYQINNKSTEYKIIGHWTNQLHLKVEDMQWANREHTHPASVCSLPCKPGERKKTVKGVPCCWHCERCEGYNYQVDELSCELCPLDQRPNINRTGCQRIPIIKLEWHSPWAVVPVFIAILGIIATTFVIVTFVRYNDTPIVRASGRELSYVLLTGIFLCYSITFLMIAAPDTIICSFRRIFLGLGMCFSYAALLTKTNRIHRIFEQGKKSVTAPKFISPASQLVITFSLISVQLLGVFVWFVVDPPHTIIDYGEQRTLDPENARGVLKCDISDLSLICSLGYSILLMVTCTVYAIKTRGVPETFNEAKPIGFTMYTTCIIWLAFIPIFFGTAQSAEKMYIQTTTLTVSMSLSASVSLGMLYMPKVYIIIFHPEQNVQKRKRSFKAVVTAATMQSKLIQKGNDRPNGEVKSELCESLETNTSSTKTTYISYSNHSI

| Structure (SMILES) | z-score |
| --- | --- |
| C/C(Cn1cnc([N+](=O)[O-])n1)=N\NC(=O)c1ccccc1 | 0.154 |
| Cc1cccc2nc(CSCc3ccco3)cn12 | -0.381 |
| Cc1ccc(-c2nc(=S)c3c(n2CCN2CCOCC2)CC(C)(C)OC3)cc1 | 0.463 |
| CCN1CCN(c2nc(-c3cccs3)nc3ccccc23)CC1 | -1.11 |
| Cc1ccc(SCc2ccc(C(=O)Nc3ccccc3Br)cc2)cc1 | -0.123 |
| Cn1cc(S(=O)(=O)CC(=O)Nc2ccc3c(c2)OCO3)c2ccccc21 | 0.535 |
| CCCOc1ccc(CNC(=S)N/N=C/c2ccc([N+](=O)[O-])cc2)cc1 | 0.602 |
| Cc1csc(NC(=O)c2cc3c(s2)-c2ccccc2OC3)n1 | -0.25 |
| COc1cc(CNCCc2c[nH]c3ccccc23)ccc1OCc1ccccc1F | 0.911 |
| COc1ccc(CCn2c(-c3ccco3)nc3nc4ccccc4nc32)cc1 | -0.965 |
| Cc1cc(C)n2c(SCc3cccs3)nnc2n1 | -0.407 |
| CCOc1cc(-c2cc(-c3ccc(C)cc3)nc(N)c2C#N)ccc1O | -0.244 |
| O=C(CN1CCN(S(=O)(=O)c2ccc(Br)cc2)CC1)Nc1ccc2c(c1)OCO2 | 0.0794 |
| Cn1c(C(O)c2ccc(Cl)cc2)nc(Cl)c1Cl (stereo unspecified) | -0.505 |
| O=C(Nc1ccc(NC(=O)c2ccco2)cc1)c1ccc2c(c1)OCO2 | -0.42 |
| Cc1ccc(NC(=O)CSc2nnc3n2CCCCC3)cc1 | -0.177 |
| C/C(N)=C(/C#N)C(=O)COC(=O)C1Cc2ccccc2CN1S(C)(=O)=O (stereo unspecified) | -0.748 |
| Cc1ccc(CN2CCN(CC3CC4C=CC3C4)CC2)cc1 (stereo unspecified) | 0.139 |
| O=C(COc1ncnc2scc(-c3ccc(F)cc3)c12)NCc1ccco1 | -0.386 |
| CCCOC(=O)c1cc(-c2ccc(/C=C3/C(=O)N(C)C(=O)C(C#N)=C3C)o2)ccc1Cl | 0.0482 |
| CCOC(=O)C1CCCN(C(=O)c2cc3c(C)nc4ccccc4c3o2)C1 (stereo unspecified) | -0.243 |
| CCc1ccc(OCC(=O)NC(C)(C)C)cc1 | -0.166 |
| CCOc1ccc(NC(=O)CCCc2cc(-c3ccc(OCC)cc3)on2)cc1 | 0.253 |

| Structure (SMILES) | z-score |
| --- | --- |
| Cn1nc(CC(=O)NCc2cccc3ccccc23)c2ccccc2c1=O | -0.0446 |
| Cc1ccc2cc(C=O)c(N(C)C)nc2c1 | -0.118 |
| COc1ccc(OC)c2c1sc(=NC(=O)c1cccc(N3C(=O)CCC3=O)c1)n2C | -0.686 |
| CCS(=O)(=O)N1CCC(C(=O)NCCC2=CCCCC2)CC1 | -0.0774 |
| CCOC(=O)C1CCN(c2ncnc3c2[nH]c2cccc(OC)c23)CC1 | -1.12 |
| CCNC(=O)c1ccc(C2SCC(=O)N2Cc2ccco2)cc1 (stereo unspecified) | 0.887 |
| CC(=O)NC(C(=O)NCC(N)=O)C(C)C (stereo unspecified) (Ac-[ξV]-Gly-NH2) | -0.00315 |
| CN(C)/C=C(\C=N\OCc1ccc(Cl)cc1Cl)C(=O)Nc1ccc(Cl)c(Cl)c1 | -0.112 |
| O=C(CCSCc1cccc(Cl)c1)NCCc1ccc(Cl)cc1 | 1.66 |
| Cc1ccccc1Sc1c(C#N)c(-c2ccccc2)nn1C | -0.00458 |
| NC(=O)C[n+]1cccc2ccccc21 | -0.0719 |
| COC(=O)NC(=S)Nc1ccc(Oc2ccc(Cl)cc2)c(Cl)c1 | 1.29 |
| CCn1c(COc2ccccc2C)nc2ccccc21 | -1.56 |
| O=C(CN1CCCCC1)NC(=O)NCc1ccccc1 | -0.401 |
| Oc1c(CN2CCOCC2)cc(COCc2ccccc2)c2cccnc12 | 0.0807 |
| CCOC(=O)c1ccc(COC(=O)CCc2nc3ccccc3[nH]c2=O)o1 | -0.139 |
| CC(=O)Nc1ccccc1NS(=O)(=O)c1ccc(Cl)cc1 | -0.305 |
| O=C(c1ccc2snnc2c1)N1CCOCC1 | 0.617 |
| COc1ccc(-c2nc(SCC(=O)N3CCOCC3)n[nH]2)cc1 | -0.168 |
| COc1ccc(NS(=O)(=O)c2cc(NC(=O)c3ccco3)ccc2N2CCCCC2)cc1 | -0.189 |
| CCOCCCNC(=O)c1ccc(Br)cc1 | 0.881 |
| CCCOc1ccc(C(=O)NC(=S)Nc2nc(C)c(C(=O)N(C)C)s2)cc1 | 0.54 |
| COc1cccc(CNC(=O)Cc2c(C(=O)O)[nH]c3ccccc23)c1 | -0.0521 |

| Structure (SMILES) | z-score |
| --- | --- |
| Cc1cc(C)c2nc(-c3ccccn3)cc(C(=O)Nc3ccc(S(=O)(=O)Nc4cc(C)on4)cc3)c2c1 | -0.184 |
| Cc1ccsc1C(=O)OCC(=O)Nc1cccc(S(=O)(=O)N2CCOCC2)c1 | -0.329 |
| CN(CCc1ccccn1)C(=O)CN(C)S(=O)(=O)c1ccc2c(c1)c(=O)n(C)c(=O)n2C | 0.578 |
| Nc1ccc2oc(-c3cc(Br)ccc3Cl)nc2c1 | 0.186 |
| COC(=O)C1=C(C)N(C)C(=O)/C1=C\c1ccco1 | -0.144 |
| Cn1c(SCc2ccon2)nc2ccccc2c1=O | 0.107 |
| O=C(COC(=O)C1CCCCC1)NCCc1ccccc1 | 0.437 |
| c1ccc2c(CSc3nnc(-c4ccncc4)o3)cccc2c1 | -0.132 |
| Cc1ccc(CSCC(=O)N2CCN(c3ccccc3)CC2)cc1 | -0.305 |
| CCOC(=O)c1cccc(NC(=O)/C=C/c2cccc([N+](=O)[O-])c2)c1 | 0.839 |
| OCCN1CCN(C(=S)NCCc2ccccc2)CC1 | -0.025 |
| COC(=O)CSc1cc(C)nc2ccc(OC)cc12 | 0.41 |
| c1ccc(COc2ccc(OCCCN3CCCCC3)cc2)cc1 | 2.89 |
| COc1ccc(CN2C(=O)C(O)(CC(=O)c3ccc4c(c3)OCO4)c3ccccc32)cc1OC (stereo unspecified) | -0.536 |
| COc1cc(S(=O)(=O)NC2CCCC2)c(OC)cc1Cl | -0.256 |
| Nc1ccc(-c2cc(N)n(-c3ccccc3)n2)cc1 | 0.895 |
| CC(C)(C)C(=O)Oc1ccc2cc(-c3ccc4ccccc4n3)c(=O)oc2c1 | 0.505 |
| CCn1c(SCC(=O)N2c3ccccc3CCc3ccccc32)nnc1-c1ccc(OC)cc1 | -0.14 |
| Cc1cc(Cl)ccc1OCc1n[nH]c(=S)n1C1CCCCC1 | active: 7.67 |
| Cc1cc(C)c(S(=O)(=O)Nc2ccc3c(c2)CCC3)c(C)c1 | -0.0119 |
| O=C(Cc1coc2ccc3ccccc3c12)N1CCCC1 | 0.174 |
| CSc1nc2nc3c(c(=O)n2[nH]1)CCCC3 | 0.0334 |
| COc1ccc(C(=O)/C=C/c2ccc(OC3CSC3)cc2)cc1OC | -0.725 |

| Structure (SMILES) | z-score |
| --- | --- |
| CCOc1ccccc1NC(=O)c1ccc(Cl)c(NC(=O)CC(c2ccccc2)c2ccccc2)c1 | -0.336 |
| Cc1sc2ncnc(N(C)Cc3ccco3)c2c1C | 0.0956 |
| CCOC(=O)c1c(NC(=O)CN2CCCc3ccccc32)sc(C)c1C | -0.0988 |
| CCN(CC)S(=O)(=O)c1ccc(NC(=O)CSc2nnc(-c3cccc(OC)c3)n2C)cc1 | -1.33 |
| Cc1cccc(NC(=S)N/N=C/c2cccc([N+](=O)[O-])c2)c1 | 0.223 |
| COc1cccc(C(=O)Nc2ccc(N3CCCC3)cc2)c1 | -0.381 |
| N#CCCN(C(=O)CSc1nc(-c2ccccc2)cn1N)c1ccc(F)cc1 | -0.2 |
| COc1cccc(/C=C2\N=C(c3c(-c4ccccc4)noc3C)OC2=O)c1 | -0.0431 |
| Cc1cc(C(F)F)nn1CC(=O)NCc1ccccc1F | -0.531 |
| COc1cc(OC)c(OC)cc1/C=N/NC(=O)C[n+]1ccccc1 | 0.0607 |
| CC(C)Nc1nnc(SCC(=O)/C=C2\N(C)c3ccccc3C2(C)C)s1 | -0.538 |
| Cc1cccc2cc(C#N)c(SCC(=O)N3CC(=O)Nc4ccccc43)nc12 | -0.983 |
| Cc1sc2nc(C3CC3)nc(SCC(=O)N3CCCc4ccccc43)c2c1C | 0.307 |
| COc1ccc(N(CC(=O)N/N=C/c2cccc3c2OCCO3)S(=O)(=O)c2ccc(NC(C)=O)cc2)cc1 | 0.0269 |
| O=C(C1CCN(S(=O)(=O)c2cccnc2)CC1)N1CCN(c2cccc(Cl)c2)CC1 | -0.337 |
| O=C(CN1C2=NCCCN2c2ccccc21)c1cccc(Br)c1 | -0.104 |
| O=C(Cn1c(SCC(=O)N2CCCc3ccccc32)nc2ccccc21)N1CCCC1 | -0.116 |
| CCN(CC)c1ccc(C2C(C(C)=O)C(=O)CC(C)(O)C2C(C)=O)cc1 (stereo unspecified) | -0.172 |
| Cc1ccc(NS(=O)(=O)c2cc(C(=O)N3CCc4ccccc4C3)ccc2Cl)cc1 | -0.667 |
| CCOC(=O)CSc1nc2ccccc2n2cnnc12 | -0.0163 |
| CCCn1c(SCC(=O)Nc2nnc(-c3ccccc3)s2)nnc1-c1ccccn1 | -0.176 |
| Cc1[nH]c2c(Cl)cccc2c1CCNC(=O)C1CCCCC1C(=O)OCC(F)(F)F (stereo unspecified) | 0.00323 |
| O=C(NCC1CCCO1)C(=O)NCC(c1ccco1)N1CCN(c2ccc(F)cc2)CC1 (stereo unspecified) | -0.341 |

| Structure (SMILES) | z-score |
| --- | --- |
| Cc1ccc(CNC(=O)C2C3C=CC4(CN(Cc5cccnc5)C(=O)C24)O3)cc1 (stereo unspecified) | -0.0986 |
| COCCNC(=O)c1ccc(NS(=O)(=O)c2cc(C)ccc2C)cc1 | 0.582 |
| O=C(NCCN1CCOCC1)c1ccc(CS(=O)(=O)c2ccc(Br)cc2)o1 | -0.159 |
| Oc1ccc(Cl)cc1C1=Nc2ccccc2N=C(c2ccco2)C1 | 1.79 |
| Cc1ncc(CO)c(/C=N/NC(=O)c2ccccc2Br)c1O | 0.871 |
| COc1ccc(S(=O)(=O)N(CC(=O)N2CCN(C)CC2)c2ccc(C)cc2)cc1OC | 0.277 |
| CCC(CC)c1nnc(NS(=O)(=O)Cc2ccccc2)s1 | 0.839 |
| CCCOc1ccc(OCCSc2ncccn2)cc1 | 0.313 |
| O=C(OCC(=O)c1ccc(S(=O)(=O)N2CCCC2)cc1)C1=COCCO1 | -0.209 |
| CCOC(=O)c1c(C)nc2c3ccccc3ccn12 | -0.389 |
| Cc1nc(NC(=O)COC(=O)CCS(=O)(=O)c2ccccc2Cl)c(Cl)cc1Cl | -1.69 |
| O=C(Nc1ccc(-c2nnc(-c3ccco3)o2)cc1)C(c1ccccc1)c1ccccc1 | -0.0515 |
| Cc1ccc2ncnc(Nc3ccc(C)c(C)c3)c2c1 | -0.233 |
| Cc1ccc(C2CC(=O)c3cnn(-c4nc(C)cc(C)n4)c3C2)cc1 (stereo unspecified) | -0.203 |
| CCC(C)(C(=O)NC1CCCCC1)N(C)C(=O)c1ccccn1 (stereo unspecified) | -0.131 |
| COc1ccc(NC(=O)Nc2cc(C)ccc2OC)cc1 | 2.83 |
| COc1ccccc1N1CCN(CCN2C(=O)CC(=C3c4ccccc4-c4ccccc43)C2=O)CC1 | 0.0153 |
| Cc1nc(SCC(=O)OCc2ccccc2)c(C#N)c(-c2ccccc2)c1C(=O)Nc1ccccc1 | -0.638 |
| CC(OC(=O)c1snc(C(=O)NC2CCCCC2)c1N)C(=O)NC(C)(C)C (stereo unspecified) | -0.0824 |
